PubChem BioAssay AID1918930 (Molecular Pharmacology Branch, DTP, NCI, 2023)
Some entries of the source have several records that differ or are many. They are shown here; other results are not. The source may hold further records. The values listed for one entry repeat one measurement in other runs, samples, wells, individuals or studies. Brackets with × give the number of equal values in this list. Marks such as [2022-09] give the month of the run. Each block holds one molecule with its values, some of them ahead of it.

Tested on: 233499-124-R-J3-PDC complex spheroid viability, % test/control
Test: Anticancer human tumor 233499-124-R-J3-PDC patient-derived colon adenocarcinoma cell line growth inhibition
Conditions: for viability, T/C: stronger effect = lower value; for IC50: compound alone
From the text: Multicellular complex tumor spheroid response to LSD1 Inhibitor Iadademstat in combination with a variety of drugs and investigational agents in selected tumor cell lines
The current study was undertaken to assess response to LSD1 inhibitors in combination with standard-of-care drugs and investigational agents in solid tumor complex spheroid models as well as in the K-562 leukemia. Complex spheroids include a stromal component modeled by human endothelial cells (HUVEC) and fibroblasts modeled by human mesenchymal stem cells (MSCs). The concentration ranges selected for each drug and investigational agent were based upon clinically achievable concentrations if the clinical Cmax of the agent was known.
Compounds. The drugs and investigational agents used in this study are listed on Table 1. All of the agents used, including staurosporine (NSC755774) and gemcitabine (NSC613327), were obtained from the Developmental Therapeutics Program, NCI. FDA-approved anticancer drugs are available from the NCI at http://dtp.nci.nih.gov/branches/dscb/oncology_drugset_explanation.html. Drugs and investigational agents were >95% pure by proton nuclear magnetic resonance (NMR) and liquid chromatography/mass spectrometry (LC/MS). Stock solutions were prepared at 400x in DMSO, stored at -70 degrees C, and diluted in fresh medium prior to their use. The final concentration of DMSO in cell culture wells never exceeded 0.25% (v/v). The FDA-approved anticancer drug set is available from the Developmental Therapeutics Program at https://dtp.cancer.gov/organization/dscb/obtaining/available_plates.htm. All drugs and investigational agents were tested over a range starting from a high concentration at or near the clinical Cmax and decreasing in half-log increments. If the clinical Cmax for an agent had not been determined, the highest concentration tested was 10 microM.
Cell Lines. The patient-derived cancer cell (PDC) lines: 292921-168-R-J2-PDC, K24384-001-R-PDC, and 521955-158-R2-J5-PDC pancreatic carcinomas, 556581-035-R-J1 ovarian carcinoma, 324938-238-R-J1-PDC, 855422-203-R-J1-PDC and 883617-216-R-J1-PDC urothelial bladder carcinomas, 743489-274-T-PDC renal cell carcinoma, 138582-R-J1 Merkel cell tumor, K60290-347-R-J1 and K57222-313-R-J1-PDC glioblastomas, 653999-131-R-J2-PDC, LG0703-F948-PDC, and 349418-098-R-PDC non-small cell lung carcinomas, 885512-296-R-J2-PDC, 171881-019-R-J1-PDC breast carcinomas and 186277-243-T-J2-PDC and 233499-124-R-J2-PDC colon carcinomas were obtained from the NCI Patient-Derived Models Repository (PDMR, https://pdmr.cancer.gov). The established cell lines NCI/ADR-RES (RRID:CVCL_14520 and OVCAR-5 (RRID:CVCL_1628) ovarian carcinomas, 786-O (RRID:CVCL_1051) and A498 (RRID:CVCL_A498) renal cell carcinoma, NCI-H211 (ATCC, cat. CRL-5824; RRID:CVCL_1529), NCI-H196 (ATCC, cat. CRL-5823, RRID:CVCL_1509), SW 1271 (ATCC, cat. CRL-2177, RRID:CVCL_1716) and NCI-H1876 (ATCC, cat. CRL-5902, RRID:CVCL_1503) small cell lung carcinomas, MDA-MB-231 (RRID:CVCL_0062) and MDA-MB-468 (RRID:CVCL_0419)breast carcinomas (10-12). Pooled donor human umbilical vein endothelial cells (HUVEC, Lonza, cat. CC-2519) and human mesenchymal stem cells (hMSC, Lonza, cat. PT-2501) were purchased from Lonza (Walkersville, MD).
Cell Culture. All cells were maintained in an incubator at 37 degrees C and 5% CO2 with 95% humidity. The PDC lines were cultured according to standard operating procedures established by the NCI PDMR (https://pdmr.cancer.gov). Briefly all PDCs were thawed and cultured in Matrigel-coated flasks prepared with a working solution of 1X Ham's F-12 nutrient mix, without supplementation (Invitrogen, Waltham, MA, cat. 11765054), 100 U/mL penicillin-streptomycin (Invitrogen, cat. 15140122), and 2.5% Matrigel (Corning Inc., Corning, NY, cat. 354248) for the first three passages. […]
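Further: spheroids exposed to agents for one week before readout.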

Compound: NC1CC1c1ccc(-c2cccc(O)c2)cc1 (stereo not drawn)
- viability, T/C (compound alone 0.316 µM): 102, 104 (2×), 92.6, 99.5, 110, 103 (3×), 82.3, 106, 93.8, 95.3, 107, 98, 97, 101, 91.3, 112, 91.5, 92.4, 96, 81.8, 90.7%
- viability, T/C (compound alone 1 µM): 91.3 (2×), 97.7, 97.4, 99.5, 95.1, 106, 95.8, 89.2, 94, 89.8, 103, 105, 96.7, 102, 86.4, 97, 104, 80.1, 93.6, 83.3, 82.5, 85.4, 90.3, 99.4%
- viability, T/C (compound alone 3.16 µM): 82.9, 87.5, 85.3, 88.5, 94.3, 93, 81.4, 85.5, 92.1, 101, 84.1, 87.3, 87.6, 77.4, 108, 85.4, 89.7 (2×), 94.5, 83.7, 93.7, 69.4, 95.8, 86.8%
- viability, T/C (compound alone 10 µM): 79, 87.6, 82.8, 85.7, 79.8, 80.1, 81.3, 88.1 (2×), 85.3, 85.1, 78.4, 83.4, 78.2, 80.4, 83.3, 93.4, 94.1, 76, 72.4, 81.1, 60.6, 73.2, 87.4, 70.3%

Compound: CC1(C)CCC(CN2CCN(c3ccc(C(=O)NS(=O)(=O)c4ccc(NCC5CCOCC5)c([N+](=O)[O-])c4)c(Oc4cnc5[nH]ccc5c4)c3)CC2)=C(c2ccc(Cl)cc2)C1
- viability, T/C (compound alone 10 µM): 53.9% [2022-01] and 1.23% [2022-02]

Compound: CC(C)CC(NC(=O)C(Cc1ccccc1)NC(=O)c1cnccn1)B(O)O (stereo not drawn)
- viability, T/C (compound alone 0.001 µM): 102% [2022-01] and 0.43% [2022-02]

Compound: CC1COCCN1c1cc(-c2ccnn2C)c2ccnc(-c3ccn[nH]3)c2n1 (stereo not drawn)
- IC50: 50.7 nM [2022-01] and < 3.16 nM [2022-02]

Compound: NC1CCC(NC2CC2c2ccccc2)CC1 (stereo not drawn)
- viability, T/C (compound alone 0.1 µM): 110, 100 (2×), 103 (3×), 99.4, 92.3, 98.8, 86.9, 112, 96.6, 92.9, 93.9, 104, 121, 101, 97.8, 95.9, 105, 87.8%
- viability, T/C (compound alone 0.316 µM): 95.5, 107, 99.6, 110 (2×), 97.8, 103, 84.5%
- viability, T/C (compound alone 1 µM): 79.4, 93.5, 88.7, 93.7, 108, 103 (2×), 99.1, 86.9, 89.2, 79.8, 96.4, 98.1, 92.7, 87.5, 77.8, 92.2, 90.5, 86.6, 88, 97.1, 95.2, 80.3, 95.4%
- viability, T/C (compound alone 3.16 µM): 84.3, 81.7, 102, 88.3, 91, 86.3, 92.7, 90.6, 86.1 (2×), 87.2, 107, 85.3, 80.4, 87.7, 97.2, 79.5, 82.1, 90.9, 89.1, 91.8, 100, 88.7, 88.6%
- viability, T/C (compound alone 10 µM): 77.4, 67.2, 78.4 (2×), 77.1, 90.6, 95.7, 89.3, 77.7, 89.4, 87.4, 81.7, 81.4, 76.7, 78.7, 86.5 (2×), 85.4, 78.8, 81.9, 80.5, 91.4, 65.1%

- IC50: 1.28 nM [2022-01] and 89.8 nM [2022-02]
Compound: Nc1ccn(C2OC(CO)C(O)C2(F)F)c(=O)n1 (stereo not drawn)
